TGI and GI50 data for 28 compounds are collected here from PubChem BioAssay (NCI).

The structures appear in SMILES notation.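 These data come from cells grown in 96-well plates and exposed to compound for 48 hours at five concentrations. Here, GI50 denotes the concentration required for 50% inhibition of growth. TGI marks complete inhibition of growth.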 Bridge positions count the residues as written; N and C are the ends. Square brackets hold non-standard residues; d marks the D form. Peptide text beside a SMILES is read from it. * marks the point of attachment. ξ: configuration not given here. ξDab(CH2SO3H) = NC(CCNCS(=O)(=O)O)C(=O)O; Heptanoyl(6-Me) = CC(C)CCCCC(=O)*; Dab = NCC[CH](N)C(=O)O

The subject of the experiment is NCI-H322M lung. In words: growth of human tumour cells (NCI), 48 h.
Turning to `COC(=O)C1=COC(C)C2CN3CCc4c([nH]c5cc(OC)c(OC)cc45)C3CC12` (stereo not given), the TGI is above 100 µM.
Take `OCCCNc1ccnc2cc(Cl)ccc12`: the TGI is above 100 µM.
Compound `O=C(NNC1=NCCCCN1)Nc1ccc(Cl)cc1` displayed a TGI above 100 µM.
Regarding `N#Cc1c(N)n2c(nc1=Nc1ccc(Cl)cc1)sc1cc(Cl)ccc12`, the GI50 is 28.1 µM and the TGI is above 100 µM.
For `C/C(=N\NC(=S)NCCCCNC(=S)N/N=C(\C)c1ccccn1)c1ccccc1`, the TGI is above 53.7 µM.
`CCC(C)C1NC(=O)C(CCNCS(=O)(=O)O)NC(=O)C(NC(=O)C(CCNCS(=O)(=O)O)NC(=O)C(NC(=O)C(CCNCS(=O)(=O)O)NC(=O)CCCCC(C)C)C(C)O)CCNC(=O)C(C(C)O)NC(=O)C(CCNCS(=O)(=O)O)NC(=O)C(CCNCS(=O)(=O)O)NC(=O)C(C(C)CC)NC1=O` (stereo not given) ({Heptanoyl(6-Me)}-[ξDab(CH2SO3H)]T[ξDab(CH2SO3H)][Dab][ξDab(CH2SO3H)]II[ξDab(CH2SO3H)][ξDab(CH2SO3H)]T; lactam 4-C; configuration not given here): the GI50 was 17.6 µM and the TGI is above 25 µM.
`CC(=O)Oc1ccc2cc(Oc3ccc(Cl)c(Cl)c3)c(=O)oc2c1` returned a TGI above 100 µM.
Regarding `O=C1/C(=C/c2ccco2)N=C2Sc3c(nc[nH]c3=O)N12`, the TGI was above 100 µM.
On to `C[C@]12CC[C@@H]3c4cc(O)c(O)cc4CC[C@H]3[C@@H]1CC[C@@H]2O`, for which the GI50 was 10.4 µM and the TGI is above 87.4 µM.
The compound `CC(C)(C)OC(=O)NC(Cc1ccc(O)cn1)C(=O)O` (stereo not given) showed a TGI above 100 µM.
Same read-out and setting: then `C[C@@H]1CCC([C@@H](C)[C@H]2CC[C@H]3[C@@H]4CC[C@H]5C[C@@H](O)CC[C@]5(C)[C@H]4CC[C@]23C)=NC1`, with above 100 µM; and `COC(=O)c1ccccc1N1C(=O)Cc2ccccc2C1=O`, with above 100 µM; and `O=C(/C=C/c1ccc(C(F)(F)F)cc1)c1c([O-])on[n+]1-c1ccccc1`, with 28 µM.
The same measure, in the same setting: then `NC(=O)c1ncn(C2OC(CO)C(O)C2O)c1NC=O` (stereo not given), with above 100 µM.
As to `O=C(O)CCc1nc2ccccc2[nH]1`, the TGI is above 100 µM.
As to `O=C(/C(=C/c1ccc([N+](=O)[O-])cc1)SCc1ccc(Cl)cc1)c1ccc(F)cc1`, the GI50 is 25.9 µM and the TGI is above 100 µM.
The matching figures for `COc1ccc2c(c1)CC[C@@H]1[C@@H]2CC[C@]2(C)c3c(cc(C(=O)O)c4sccc34)C[C@@H]12`: 19.4 µM and 52.6 µM.
`COC(=O)C1=C(OC(=O)c2ccccc2)C(C(=O)OC)[C@@]2(O)[C@@H](C(=O)OC)[C@H](C)C[C@@H]1[C@@H]2C(=O)OC` (stereo not given in full) had a TGI of 97.1 µM.
Still for that read-out and setting: then `COc1cc2c(cc1OC)CC(=O)Nc1cc(OC)c(OC)cc1CC2`, with above 100 µM; and `O=[N+]([O-])c1cc([N+](=O)[O-])c(/C=C/c2ccc(Cl)c(Cl)c2)cc1/C=C/c1ccc(Cl)c(Cl)c1`, with 70.9 µM; and `COc1cc2oc(-c3ccc4c(c3)OCO4)c(OC)c(=O)c2c(OC)c1O`, with above 100 µM.
As to `S=C(NCCNC(=S)[S][Sn]([c]1ccccc1)([c]1ccccc1)[c]1ccccc1)[S][Sn]([c]1ccccc1)([c]1ccccc1)[c]1ccccc1`, the GI50 is 0.0802 µM and the TGI came to 0.16 µM.
For `CCOC(=O)C1(C(=O)OCC)C[C@@H](C)[C@@H](O)C1`, the TGI is above 100 µM.
Still for that read-out and setting: then `CC1(C)CC[C@]2(C(=O)O)CC[C@]3(C)C(=CC[C@@H]4[C@@]5(C)C[C@H](O)[C@H](O)[C@@](C)(C(=O)O)[C@@H]5CC[C@]43C)[C@@H]2C1`, with above 100 µM; and `CC(C)CC(=O)NC(C(=O)NC(C(=O)NC(CC(C)C)C(O)CC(=O)NC(C)C(=O)NC(CC(C)C)C(O)CC(=O)O)C(C)C)C(C)C` (stereo not given), with above 100 µM.
For the compound `Cc1ccc2c(c1)c(Sc1ccc(C(=O)NO)cc1)c1n2CN(C)CC1`, the GI50 is 2.31 µM and the TGI came to 9.66 µM.
For `O=C(O)c1cc(=O)c2c(OCC(O)COc3cccc4oc(C(=O)O)cc(=O)c34)cccc2o1`, the TGI was above 100 µM.
Still for that read-out and setting: then `N#CC1=C(c2ccccc2)C(=C2Nc3ccccc3N2)C2S/C(=C\c3ccccc3)C(=O)N2C1=N` (stereo not given), with 10.6 µM.
